Laboratory results: paper PMC12820563
This is one part of the list. The list includes weakly bound sequences.

These sequences were tested against T1, MBP-FoxP3dN (UniProt Q99JB6) (assay: PD-seq (MBP pull-down with sequencing)). Details: 20 mM Tris-HCl pH 7.5, 100 mM NaCl, 1.5 mM MgCl2, 0.4 uM protein, 0.1 uM dsDNA library, 30 min, room temperature, amylose pull-down; high values mean tight binding; double strand, one strand shown.
T1 sequence: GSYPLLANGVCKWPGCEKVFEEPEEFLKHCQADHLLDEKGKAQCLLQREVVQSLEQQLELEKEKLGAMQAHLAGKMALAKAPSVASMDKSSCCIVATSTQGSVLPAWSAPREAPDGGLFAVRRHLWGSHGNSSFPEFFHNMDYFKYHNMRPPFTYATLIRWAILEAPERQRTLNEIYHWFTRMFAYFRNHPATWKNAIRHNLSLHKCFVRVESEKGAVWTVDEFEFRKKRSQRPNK

Sequence | binding signal (RPM ratio (pull-down/input))
GATGATTGTTCTCCCAGCTGATGAATTCGCGGTCTCGAGTAAACAAATTTTCCTAATCTTTCTGTTCAAGCGCCATCTAC | 0.492
GATGATTGTTCTCCCAGCTGATGAATTGGCATAATCGAGTAAACAAATTTTCCTAATCTTTCTGTTCAAGCGCCATCTAC | 0.597
GATGATTGTTCTCCCAGCTGATGAATTTCCTCCCTCGAGTAAACAAATTTTCCTAATCTTTCTGTTCAAGCGCCATCTAC | 0.223
GATGATTGTTCTCCCAGCTGATGAATTGAAAGGATCGAGTAAACAAATTTTCCTAATCTTTCTGTTCAAGCGCCATCTAC | 0.183
GATGATTGTTCTCCCAGCTGATGAATTCTAGGAATCGAGTAAACAAATTTTCCTAATCTTTCTGTTCAAGCGCCATCTAC | 0.18
GATGATTGTTCTCCCAGCTGATGAATTTTTACGCTCGAGTAAACAAATTTTCCTAATCTTTCTGTTCAAGCGCCATCTAC | 0.259
GATGATTGTTCTCCCAGCTGATGAATTTTGGGCATCGAGTAAACAAATTTTCCTAATCTTTCTGTTCAAGCGCCATCTAC | 0.782
GATGATTGTTCTCCCAGCTGATGAATTCCCGCATTCGAGTAAACAAATTTTCCTAATCTTTCTGTTCAAGCGCCATCTAC | 5.9
GATGATTGTTCTCCCAGCTGATGAATTAACATTGTCGAGTAAACAAATTTTCCTAATCTTTCTGTTCAAGCGCCATCTAC | 0.588
GATGATTGTTCTCCCAGCTGATGAATTGCAACATTCGAGTAAACAAATTTTCCTAATCTTTCTGTTCAAGCGCCATCTAC | 4.94
GATGATTGTTCTCCCAGCTGATGAATTAATGCCCTCGAGTAAACAAATTTTCCTAATCTTTCTGTTCAAGCGCCATCTAC | 1.29
GATGATTGTTCTCCCAGCTGATGAATTTGGCCTTTCGAGTAAACAAATTTTCCTAATCTTTCTGTTCAAGCGCCATCTAC | 4.54
GATGATTGTTCTCCCAGCTGATGAATTCATAGAGTCGAGTAAACAAATTTTCCTAATCTTTCTGTTCAAGCGCCATCTAC | 0.307
GATGATTGTTCTCCCAGCTGATGAATTATCCAAATCGAGTAAACAAATTTTCCTAATCTTTCTGTTCAAGCGCCATCTAC | 0.222
GATGATTGTTCTCCCAGCTGATGAATTGGGGTTCTCGAGTAAACAAATTTTCCTAATCTTTCTGTTCAAGCGCCATCTAC | 0.782
GATGATTGTTCTCCCAGCTGATGAATTACTGACCTCGAGTAAACAAATTTTCCTAATCTTTCTGTTCAAGCGCCATCTAC | 0.285
GATGATTGTTCTCCCAGCTGATGAATTGCTCGCTTCGAGTAAACAAATTTTCCTAATCTTTCTGTTCAAGCGCCATCTAC | 0.6
GATGATTGTTCTCCCAGCTGATGAATTGCAGAAGTCGAGTAAACAAATTTTCCTAATCTTTCTGTTCAAGCGCCATCTAC | 0.394
GATGATTGTTCTCCCAGCTGATGAATTTACCACGTCGAGTAAACAAATTTTCCTAATCTTTCTGTTCAAGCGCCATCTAC | 0.499
GATGATTGTTCTCCCAGCTGATGAATTAATGCTTTCGAGTAAACAAATTTTCCTAATCTTTCTGTTCAAGCGCCATCTAC | 1.78

Sequence | binding signal (RPM ratio (pull-down/input))
GATGATTGTTCTCCCAGCTGATGAATTAGAATCCTCGAGTAAACAAATTTTCCTAATCTTTCTGTTCAAGCGCCATCTAC | 0.465
GATGATTGTTCTCCCAGCTGATGAATTTTGCGCTTCGAGTAAACAAATTTTCCTAATCTTTCTGTTCAAGCGCCATCTAC | 1.78
GATGATTGTTCTCCCAGCTGATGAATTTATCGGCTCGAGTAAACAAATTTTCCTAATCTTTCTGTTCAAGCGCCATCTAC | 0.629
GATGATTGTTCTCCCAGCTGATGAATTGCCATGCTCGAGTAAACAAATTTTCCTAATCTTTCTGTTCAAGCGCCATCTAC | 1
GATGATTGTTCTCCCAGCTGATGAATTGACGAACTCGAGTAAACAAATTTTCCTAATCTTTCTGTTCAAGCGCCATCTAC | 0.256
GATGATTGTTCTCCCAGCTGATGAATTTATCACATCGAGTAAACAAATTTTCCTAATCTTTCTGTTCAAGCGCCATCTAC | 1.28
GATGATTGTTCTCCCAGCTGATGAATTGAAACCTTCGAGTAAACAAATTTTCCTAATCTTTCTGTTCAAGCGCCATCTAC | 0.235
GATGATTGTTCTCCCAGCTGATGAATTGAGTATGTCGAGTAAACAAATTTTCCTAATCTTTCTGTTCAAGCGCCATCTAC | 1.87
GATGATTGTTCTCCCAGCTGATGAATTTTTGACTTCGAGTAAACAAATTTTCCTAATCTTTCTGTTCAAGCGCCATCTAC | 0.447
GATGATTGTTCTCCCAGCTGATGAATTTCGGTTTTCGAGTAAACAAATTTTCCTAATCTTTCTGTTCAAGCGCCATCTAC | 0.714
GATGATTGTTCTCCCAGCTGATGAATTGCGACGTTCGAGTAAACAAATTTTCCTAATCTTTCTGTTCAAGCGCCATCTAC | 0.926
GATGATTGTTCTCCCAGCTGATGAATTTCTGACTTCGAGTAAACAAATTTTCCTAATCTTTCTGTTCAAGCGCCATCTAC | 0.39
GATGATTGTTCTCCCAGCTGATGAATTGGACTGATCGAGTAAACAAATTTTCCTAATCTTTCTGTTCAAGCGCCATCTAC | 0.228
GATGATTGTTCTCCCAGCTGATGAATTAACTACGTCGAGTAAACAAATTTTCCTAATCTTTCTGTTCAAGCGCCATCTAC | 0.298
GATGATTGTTCTCCCAGCTGATGAATTTAGCAGCTCGAGTAAACAAATTTTCCTAATCTTTCTGTTCAAGCGCCATCTAC | 1.72
GATGATTGTTCTCCCAGCTGATGAATTATGTTAGTCGAGTAAACAAATTTTCCTAATCTTTCTGTTCAAGCGCCATCTAC | 5.81
GATGATTGTTCTCCCAGCTGATGAATTGGAACACTCGAGTAAACAAATTTTCCTAATCTTTCTGTTCAAGCGCCATCTAC | 0.486
GATGATTGTTCTCCCAGCTGATGAATTTGCGCTCTCGAGTAAACAAATTTTCCTAATCTTTCTGTTCAAGCGCCATCTAC | 0.911
GATGATTGTTCTCCCAGCTGATGAATTTGCGATATCGAGTAAACAAATTTTCCTAATCTTTCTGTTCAAGCGCCATCTAC | 1.04
GATGATTGTTCTCCCAGCTGATGAATTCGATCTATCGAGTAAACAAATTTTCCTAATCTTTCTGTTCAAGCGCCATCTAC | 0.345
